# Data from US20110027186A1 (AGENCY FOR SCIENCE TECHNOLOGY AND RESEARCH A STAR, published 2011).
# How the values were obtained:
# [1] = molecular target: T1, TAZ (Transcriptional Coactivator with PDZ-Binding Motif), endogenous protein in human breast cancer cell … (human, UniProt Q9GZV5); assay: GST pulldown from Hs578T cell extract, immunoblot
# T1 construct: Endogenous protein detected by immunoblot; also called WWTR1; TAZ/WWTR1
# [2] = molecular target: T2, YAP, endogenous protein in human breast cancer cell lysates (human, UniProt P46937-3 1-454); assay: GST pulldown from Hs578T cell extract, immunoblot
# T2 construct: Endogenous protein detected by immunoblot; also called Yes-associated protein; endogenous YAP
# T1 sequence (Q9GZV5 whole entry): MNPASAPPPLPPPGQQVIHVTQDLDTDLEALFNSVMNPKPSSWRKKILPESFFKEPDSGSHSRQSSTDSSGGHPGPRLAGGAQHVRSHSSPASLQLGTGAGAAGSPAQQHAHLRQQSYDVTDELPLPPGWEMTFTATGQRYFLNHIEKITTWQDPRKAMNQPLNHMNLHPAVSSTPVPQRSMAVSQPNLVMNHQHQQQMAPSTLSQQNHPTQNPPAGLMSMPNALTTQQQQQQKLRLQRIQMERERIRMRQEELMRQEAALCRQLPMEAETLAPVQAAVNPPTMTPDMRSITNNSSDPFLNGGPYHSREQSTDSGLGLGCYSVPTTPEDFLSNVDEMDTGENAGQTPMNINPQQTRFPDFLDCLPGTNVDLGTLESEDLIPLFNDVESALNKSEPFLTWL
binder,measurement,setting,value
"GST (other, Negative control of the pulldown; also called glutathione-S-transferase; immobilized GST control) not shown",binding result,[1],no binding
same,binding result,[2],no binding
